Results reported in PubChem BioAssay AID588855 (National Center for Advancing Translational Sciences (NCATS), 2011).
In all, about 410,000 compounds went through this assay and about 5,000 (1.2%) were called active. The inconclusive results got no clear call from the source; some entries with a clear call stand among them for comparison. The call rests on the fitted dose curve; in most records, active means well fitted inhibition curve with a large enough effect; inconclusive means small, poorly fitted or top-dose-only effect; inactive means no such curve, though single readings can be large or run the other way. Where the call is inconclusive, the potency comes from a doubtful curve fit.

test: qHTS for Inhibitors of TGF-b; details: HepG2 CAGA-GFP TGF-b/SMAD3 reporter, GFP fluorescence, 18 h, TGF-beta stimulated, 500 pg/mL final; series mostly up to 46.1 µM; activity, negative = inhibition: at the top concentration; further: nearly all actives have a fitted effect of over 65% in size
In short: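 HEPG2 CAGA-GFP cells (1000/well, DMEM with 1% FBS) were pre-incubated 2 h at 37 degrees C, given compound by pin tool, then stimulated with TGF-beta at 500 pg/mL final for 18 h before per-cell GFP fluorescence imaging.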
On the % scale 0 is the no-effect control and ±100 the full control effect; potency means the concentration at half of the fitted maximal effect; tags describe the fitted curve by direction and shape.

SMILES	Potency	activity, negative = inhibition
FC(F)(F)c1ccccc1Cc1c(-c2ccco2)nc2ccc(Br)cn12	inconclusive: 12.6 µM [inhibitor, single point]	–
Cc1c(C(=O)Nc2ccccc2Cl)oc2ccc(S(=O)(=O)N3CCCCC3)cc12	–	inactive: -14.3%
CCCn1c2ccc(F)cc2c2nnc(SCCN(CC)CC)nc21	–	inactive: 12%
COc1cc(NC(=O)Cn2c(-c3cncs3)nc3ccccc32)cc(OC)c1OC	inconclusive: 6.31 µM [inhibitor, single point]	–
Cc1ccc(CN2CCCn3nc(C(=O)NCCc4ccccc4Cl)cc3C2=O)cc1	–	inactive: -5.85%
Cc1cccc(N2CCN(C(=O)c3cnn4c(C(F)F)cc(-c5ccccc5)nc34)CC2)c1C	inconclusive: 35.5 µM [inhibitor, partial curve, poor fit]	–
CC(C)(CO)NC(=O)c1ccc2c(c1)C(=O)c1ccccc1-2	–	inactive: 7%
COC(=O)c1c(N)sc(C(=O)N2CCOCC2)c1C	–	inactive: -0.279%
O=C(c1ccc(Cl)c(S(=O)(=O)N2CCCCCC2)c1)N1CCN(c2ccccn2)CC1	inconclusive: 7.08 µM [inhibitor, partial curve]	–
Cc1csc(NC(=O)CSc2nnc(NC(=O)COc3ccc(Cl)cc3)s2)n1	–	inactive: 0.225%
COc1ccc(C(=O)C2CCCN(Cc3cc(C)c(O)c(C)c3)C2)c(OC)c1 (stereo not given)	inconclusive: 35.5 µM [inhibitor, single point]	–
CCSc1nc2cc(S(=O)(=O)N3CCOCC3)ccc2o1	–	inactive: -1.23%
COC(=O)c1ccccc1Oc1nc(Cl)cc(OC)n1	inconclusive: 2.82 µM [inhibitor, full curve]	–
C[C@@H](C(=O)NCc1c(F)cccc1Cl)N1C(=O)N2CCc3c([nH]c4ccccc34)[C@@]2(C)C1=O	inconclusive: 22.4 µM [inhibitor, single point]	–
N#Cc1c(NC(=O)C2CCCO2)sc2c1CCCCCC2 (stereo not given)	–	inactive: -7.51%
CCc1nc(SC)ncc1C(=O)N1CCN(c2cc(C)ccc2C)CC1	inconclusive: 5.62 µM [inhibitor, partial curve]	–
C/C(=N\Nc1ccc(F)cc1F)c1ccccc1O	inconclusive: 14.1 µM [inhibitor, single point]	–
CCOC(=O)C1CCN(CC(=O)c2c(C)[nH]c3ccccc23)CC1	inconclusive: 14.1 µM [inhibitor, single point]	–
O=C(NCc1ccccc1)C1CCC(CNc2c(N3CCCCC3)c(=O)c2=O)CC1 (stereo not given)	inconclusive: 35.5 µM [inhibitor, single point]	–
Cc1cc(C)cc(Oc2coc3cc(OC(=O)c4cccs4)ccc3c2=O)c1	inconclusive: 0.708 µM [inhibitor, full curve]	–
Cc1ccc(C)c(S(=O)(=O)N2CCN(C(=O)Nc3ccccc3)CC2)c1	–	inactive: -17.8%
CC(C)CNc1nc(N)c([N+](=O)[O-])c(N2CCCCCC2)n1	inconclusive: 12.6 µM [inhibitor, partial curve, poor fit]	–
COc1ccc(CN2CCC(=O)N([C@H](CO)CC(C)C)CC2)cc1OC	inconclusive: 35.5 µM [inhibitor, single point]	–
Cc1cc(NC(=O)COC(=O)CCNS(=O)(=O)c2c(Cl)cccc2Cl)no1	inconclusive: 0.631 µM [inhibitor, partial curve, poor fit]	–

SMILES	Potency	activity, negative = inhibition
CC(C)CC(N)c1csc(Nc2ccc(C(=O)N(C)Cc3ccccc3)cn2)n1 (stereo not given)	inconclusive: 35.5 µM [inhibitor, single point]	–
Fc1ccc(NC(=S)NCCc2ccc(Cl)cc2)cc1	inconclusive: 35.5 µM [inhibitor, single point]	–
COC(=O)C1=C(C)N(Cc2ccccc2)C(=NCc2cccc(Cl)c2)N[C@H]1c1cccc(F)c1	inconclusive: 22.4 µM [inhibitor, single point]	–
CC(C(=O)C12CC3CC(CC(C3)C1)C2)N1CCOCC1 (stereo not given)	–	inactive: 0.141%
CCCCCN1C=CC(=C2C(=O)c3ccccc3C2=O)C=C1	–	inactive: -26.8%
Cc1cccc(S(=O)(=O)NNC(=O)c2cc(-c3ccc(F)cc3)nc3ccccc23)c1	inconclusive: 35.5 µM [inhibitor, single point]	–
Cn1c(=O)c2c(nc(OCC3COC(C)(C)O3)n2Cc2ccccc2F)n(C)c1=O (stereo not given)	inconclusive: 3.16 µM [inhibitor, partial curve, poor fit]	–
Cc1ccc([C@H]2C[C@H](n3cc(-c4ccc(F)cc4)nn3)[C@@H](O)CN2CC2CCCCC2)cc1	inconclusive: 14.1 µM [inhibitor, single point]	–
N#Cc1ncc(-c2ccc3c(c2)OCCOCCOCCOCCO3)nc1C#N	inconclusive: 35.5 µM [inhibitor, single point]	–
CCCc1nnc(SCC(=O)NC2CCCC2)n1CCOC	–	inactive: 0.0578%
CCc1ccccc1NC(=O)Cn1c(SCc2ccc(F)cc2)nc2ccncc21	inconclusive: 20 µM [inhibitor, single point]	–
CCc1cccc(CC)c1NC(=O)CCS(=O)(=O)c1ccc2c(c1)CCN2C(C)=O	inconclusive: 35.5 µM [inhibitor, single point]	–
COCCNC(=O)CN1C(=O)c2cccnc2Oc2ccc(Cl)cc21	inconclusive: 5.62 µM [inhibitor, single point]	–
Cc1ccc(S(=O)(=O)N(CCc2ccccc2)CC(=O)Nc2ccc(Br)cc2)cc1	inconclusive: 35.5 µM [inhibitor, single point]	–
Cc1nc(C(=O)NNC(=O)c2cccc(Cl)c2)c(C(F)(F)F)o1	–	inactive: -1.72%
COC(=O)c1c(-c2ccc3ccccc3c2)csc1NC(=O)Cc1ccc(OC)c(OC)c1	inconclusive: 10 µM [inhibitor, partial curve]	–
CC(C)n1c(NCc2c[nH]c3ccccc23)nc2ccccc21	inconclusive: 14.1 µM [inhibitor, single point]	–
CCOC(=O)c1ccc(N2C(=O)c3n[nH]c(-c4ccco4)c3C2c2cccc(O)c2)cc1 (stereo not given)	active: 12.6 µM	–
C/C(=N\NC(=O)c1ccc(C)cc1)c1c(C)[nH]n(-c2ccccc2)c1=O	inconclusive: 14.1 µM [inhibitor, partial curve, poor fit]	–
O=C(COC(=O)c1ccccc1SCC(=O)NC1CCS(=O)(=O)C1)NC1CCS(=O)(=O)C1 (stereo not given)	–	inactive: -12.1%
Cc1ccc(NC(=O)c2cc(N3C(=O)CCC3=O)ccc2N2CCCCC2)cc1	inconclusive: 35.5 µM [inhibitor, single point]	–
CN(Cc1ccccc1)c1oc(COc2ccccc2F)nc1C#N	–	inactive: -9.24%
O=C(Cn1cnc2onc(-c3ccc(Cl)cc3)c2c1=O)Nc1ccc(F)cc1	–	inactive: 13.8%
Cc1ccc(Nc2nc(NCc3cccs3)nc3ccsc23)c(C)c1	active: 12.6 µM	–

SMILES	Potency	activity, negative = inhibition
Nc1cccc(NC(=O)CN2CCOCC2)c1	inconclusive: 2.82 µM [inhibitor, partial curve, poor fit]	–
CCN(CC)CCOC(=O)c1ccc(NC(=O)CCCN2C(=O)/C(=C\c3cccs3)SC2=S)cc1	inconclusive: 25.1 µM [inhibitor, single point]	–
CCN(C(=O)c1cccc(S(=O)(=O)N2CCc3ccccc32)c1)C1CCS(=O)(=O)C1 (stereo not given)	–	inactive: 20.2%
COc1ccc(NC(=O)C2(C)Cc3c(-c4cccc(C(N)=O)c4)ccnc3O2)cc1 (stereo not given)	–	inactive: 8.72%
COc1cccc(-c2cc(C(=O)Nc3cccnc3)c3ccccc3n2)c1	–	inactive: -8.36%
N#CC(c1ccccc1)c1ccc2c(C(F)(F)F)cc(C(F)(F)F)nc2n1 (stereo not given)	inconclusive: 14.1 µM [inhibitor, partial curve, poor fit]	–
COc1cc(OC)c(NC(=O)CCNC(=O)Cn2cnc3ccccc3c2=O)cc1Cl	–	inactive: 0%
COc1ccccc1NS(=O)(=O)c1cccc(-n2c(O)c(C=Nc3ccccc3C(=O)O)c3ccccc3c2=O)c1	inconclusive: 22.4 µM [inhibitor, partial curve, poor fit]	–
COc1ccc(-c2cc(=O)c3ccccc3[nH]2)cc1	inconclusive: 3.98 µM [inhibitor, full curve, poor fit]	–
C=CCn1c(SCC(=O)c2cccs2)nnc1-c1cccc(OC)c1	inconclusive: 35.5 µM [inhibitor, single point]	–
COC(=O)C(=Cc1ccccc1[N+](=O)[O-])C(=O)OC	inconclusive: 20 µM [inhibitor, single point]	–
CCOC(=O)c1cccc(NC(=O)c2cnc3sc(N4CCOCC4)nn3c2=O)c1	–	inactive: 0.438%
CCOC(=O)c1c(NC(C)=O)sc2c(OC)c(Br)ccc12	–	inactive: 0.743%
CCOC(=O)C(Cc1c[nH]c2ccccc12)NC(=O)c1ccccc1Br (stereo not given)	inconclusive: 22.4 µM [inhibitor, single point]	–
Cc1ccccc1CCNC(=O)c1ccc2c(c1)nc1n2CCCCC1	–	inactive: -17.3%
O=C(c1ccncc1)N1CCN(C(=O)c2cccc3ccccc23)CC1	inconclusive: 0.355 µM [inhibitor, partial curve, poor fit]	–
COc1cc(C(=O)Nc2ccc(-c3nc4cc(C)ccc4o3)c(O)c2)cc(OC)c1OC	–	inactive: 30.5%
CCCC1CC(CSC(=N)N)OC1=O (stereo not given)	–	inactive: -17%
Cc1ccc(C)c(C2=NNC(=NCc3ccccc3)SC2)c1	–	inactive: -6.12%
OCCN1CCN(C2Cc3cc(Cl)ccc3Sc3ccc(Cl)cc32)CC1 (stereo not given) (tested in a mixture with another compound)	inconclusive: 25.1 µM [inhibitor, single point]	–
CC(=O)c1c(C)[nH]c(C(=O)CN2CCN(S(=O)(=O)c3ccccc3F)CC2)c1C	–	inactive: 4.2%
Cc1ccc(NC(=O)CSc2nc3ccccc3c(=O)n2CCCN2CCCCC2)cc1Cl	inconclusive: 35.5 µM [inhibitor, single point]	–
